Among all 310,000 compounds or so, about 2,200 (0.71%) showed an effect of 50% or more. The effect is printed as a negative number. The list shows a part of the results.
target: human ether-à-go-go-related gene (hERG) potassium channel (human, UniProt Q12809); test: primary screen, population patch clamp on CHO cells stably expressing hERG
Sequence (Q12809 whole entry, looked up): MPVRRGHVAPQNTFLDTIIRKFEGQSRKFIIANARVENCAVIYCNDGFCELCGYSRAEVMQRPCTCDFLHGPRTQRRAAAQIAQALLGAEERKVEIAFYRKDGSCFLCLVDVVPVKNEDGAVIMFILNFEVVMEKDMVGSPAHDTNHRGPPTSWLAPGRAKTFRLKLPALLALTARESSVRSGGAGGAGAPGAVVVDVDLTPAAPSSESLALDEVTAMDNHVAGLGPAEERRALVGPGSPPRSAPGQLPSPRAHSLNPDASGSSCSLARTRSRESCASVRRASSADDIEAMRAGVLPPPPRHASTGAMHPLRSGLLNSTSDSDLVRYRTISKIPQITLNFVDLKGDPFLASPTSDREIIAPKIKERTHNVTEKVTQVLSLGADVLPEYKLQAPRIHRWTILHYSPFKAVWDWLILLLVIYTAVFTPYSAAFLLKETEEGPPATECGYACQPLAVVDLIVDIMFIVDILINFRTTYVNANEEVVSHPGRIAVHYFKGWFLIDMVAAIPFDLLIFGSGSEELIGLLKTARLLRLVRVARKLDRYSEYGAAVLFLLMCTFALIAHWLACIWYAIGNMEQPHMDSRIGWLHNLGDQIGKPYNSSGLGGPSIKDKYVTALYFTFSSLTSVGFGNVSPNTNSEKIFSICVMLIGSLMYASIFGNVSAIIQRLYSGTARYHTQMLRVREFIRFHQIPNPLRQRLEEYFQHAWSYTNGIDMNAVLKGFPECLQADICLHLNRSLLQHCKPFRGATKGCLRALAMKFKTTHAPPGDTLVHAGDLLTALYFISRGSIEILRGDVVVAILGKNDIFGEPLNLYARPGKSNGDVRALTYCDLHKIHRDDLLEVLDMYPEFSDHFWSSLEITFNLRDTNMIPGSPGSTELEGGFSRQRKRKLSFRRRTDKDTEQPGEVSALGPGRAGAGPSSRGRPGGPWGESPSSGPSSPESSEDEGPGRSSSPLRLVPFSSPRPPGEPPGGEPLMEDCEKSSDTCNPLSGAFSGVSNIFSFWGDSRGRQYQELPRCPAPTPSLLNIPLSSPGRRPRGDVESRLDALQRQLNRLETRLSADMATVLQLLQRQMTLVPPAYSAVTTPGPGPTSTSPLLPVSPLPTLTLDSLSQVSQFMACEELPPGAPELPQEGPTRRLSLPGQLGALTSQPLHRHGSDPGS

Compound	hERG current change (%, negative = inhibition) at 1uM [%]
Cn1nccc1C(=O)N1CCN(c2ccc(F)cc2)CC1	11.8
CCC1(c2ccc(F)cc2)NC(=O)N(CC(=O)N2CCN(S(=O)(=O)c3ccc(C)cc3)CC2)C1=O (stereo not shown)	4.93
CC1CN(c2oc(COc3ccc(Cl)cc3Cl)nc2C#N)CC(C)O1 (stereo not shown)	16.5
COc1ccc(CCNC(=O)C2CC(=O)N(c3ccc(F)cc3)C2)cc1OC (stereo not shown)	13.3
CC(C)CN1CCC(=O)N([C@H](COc2ccccc2)Cc2ccccc2)CC1	-29.8
COc1ccc(S(=O)(=O)Oc2cccc(/C=N/N=C3/NC(=O)C(CC(=O)O)S3)c2)cc1 (stereo not shown)	11.7
[O-]C1=N/[N+](=C/c2ccccc2)CC1	6.43
Cc1ccc(C)n1-c1sc2c(c1C#N)CCC(C)C2 (stereo not shown)	12.5
CCCn1nc(C(=O)NCC2COc3ccccc3O2)c2ccccc2c1=O (stereo not shown)	-0.0249
Cc1cccnc1Nc1nc(-c2ccc(F)cc2)cs1	12.9
COC(CN1C(=O)C(=O)/C(=C(/O)c2ccccc2)C1c1ccccn1)OC (stereo not shown)	8.89
COc1ccc(N(CC(=O)NCCC2=CCCCC2)S(=O)(=O)c2ccccc2)cc1OC	10.6
CC(C)CN1C(=O)c2ccc(C(=O)Nc3ccncc3)cc2C1=O	-9.26
COC(=O)c1cc(C(=O)NCCCN2CCOCC2)cc([N+](=O)[O-])c1.Cl	2.7
COC(=O)c1ccc([N+](=O)[O-])cc1N1C(=O)C2C3CCC(C3)C2C1=O (stereo not shown)	17.9
CCC1CCCCN1C(=O)CSc1nnc(-c2cccs2)o1 (stereo not shown)	-4.78
CCCCNC(=O)c1sc2nc(C)cc(COC)c2c1-n1cccc1	-1.25
COc1ccnc(Oc2ccc(F)cc2)c1C(=O)N/C=N/OCc1ccccc1	0.714
CCOc1ccc(C2C(C(C)=O)=C(O)C(=O)N2CCc2c[nH]c3ccccc23)cc1 (stereo not shown)	8.09
O=C(COC(=O)C12CC3CC(CC(C3)C1)C2)NCCCc1ccccc1	12.3
COc1cccc(C(=O)N/N=C2\SCC(=O)N2Cc2ccc3c(c2)OCO3)c1	-7.96
COc1ccc(C(=O)OCC(=O)C(C)(C)C)cc1S(=O)(=O)N(C)CCc1cccnc1	9.52

Compound	hERG current change (%, negative = inhibition) at 1uM [%]
CCN(C(=O)COC(=O)CSc1ccccc1)c1c(N)n(Cc2ccccc2)c(=O)[nH]c1=O	7.76
CCCN(CCC)S(=O)(=O)c1cc(CN2C(=O)c3cccnc3C2=O)ccc1OC	12.4
COCCCNC(=O)Cn1nnc(-c2ccccc2NC(=O)c2ccc(F)cc2)n1	13.7
Cc1cccc(C(=O)N2CCC(n3nnc4cc(F)ccc43)CC2)c1	1.25
O=C(O)C1C2C=CC(C2)C1C(=O)NCCCN1CCOCC1 (stereo not shown)	14.1
COc1cccc(/C=C/C(=O)NNC(=O)c2ccco2)c1OC	5.54
Cc1ccc(SC[C@H](Cc2ccccc2)N2CC[C@@H](NC(=O)OCc3ccccc3)CCC2=O)cc1	2.6
Cc1cc(C)cc(Oc2nc3c(C)cccn3c(=O)c2/C=C(\C#N)C(=O)NC2CCS(=O)(=O)C2)c1 (stereo not shown)	5.75
CC(C)(C)NC(=S)N1CCC(C(=O)c2ccc(Cl)cc2)CC1	14.3
O=C(OCC(=O)N1CCOCC1)c1ccc(Br)cc1	15.8
O=C(Nc1ccc(C(=O)O)cc1)/C(=C\c1ccccc1)NC(=O)c1ccc(Br)cc1	9.2
CCOc1ccc(S(=O)(=O)NCCC(=O)NCC(c2cccs2)N(C)C)cc1 (stereo not shown)	6.25
Cc1ccc(C2NC(c3ccc(C)cc3)C([N+](=O)[O-])C(C)(C)C2[N+](=O)[O-])cc1 (stereo not shown)	-16.3
Cc1cc(C)n2c(SCC(=O)N(C)C3CCCCC3)nnc2n1	11.7
CC(C)[C@]1(c2ccc(Cl)cc2)ON(c2ccccc2C(F)(F)F)C1=O	-3
CC(=O)NS(=O)(=O)c1ccc(NS(=O)(=O)c2ccc(F)cc2)cc1	12.1
O=[N+]([O-])c1ccc(N/N=C\c2cccnc2)nc1	4.27
Cc1ccc(-n2c(Cl)c(Cl)nc(Cl)c2=O)cc1	7.72
COc1nc(Nc2ccc(-c3nc4ccccc4o3)cc2)nc(N2CCOCC2)n1	7.79
COc1ccc(-c2cc(C(=O)Nc3ccccc3SC)no2)cc1	3.47
O=C(O)c1sccc1SCc1ccc(Cl)cc1Cl	15.1
COc1ccc(/C=N/Nc2ccc(C(=O)O)cc2)c(OC)c1OC	18.1

Compound	hERG current change (%, negative = inhibition) at 1uM [%]
CCOC(=O)c1cccc(NC(=O)CN2C(=O)C3C4C=CC(C4)C3C2=O)c1 (stereo not shown)	-9.79
COc1ccccc1C(=O)NC(CCSC)C(=O)NNC(=O)c1ccccc1O (stereo not shown)	18
CCOc1ccc2[nH]c(C(=O)N/N=C/c3ccc(OC)cc3)cc2c1	12.7
CCc1c(C(=O)N/N=C/c2ccc(OCc3ccc(F)cc3)c(OC)c2)nnn1-c1nonc1N	22.3
CC(=O)C1=C(C)NC(=O)NC1c1cc(Br)ccc1OCC#N (stereo not shown)	20.2
CC(C)[C@H](NS(=O)(=O)c1cccc(C(F)(F)F)c1)C(=O)OCC(N)=O	11.4
COc1ccc(OCCCC(=O)Nc2cc(Cl)ccc2-n2cncn2)cc1	-18.2
CSCCC(NS(=O)(=O)c1ccc(Cl)cc1)C(=O)OCC(=O)c1ccc(F)cc1 (stereo not shown)	4.34
COc1ccc(/C=C2\Oc3cc(OCC(=O)N4CC(O)C[C@H]4C(=O)O)ccc3C2=O)c(OC)c1OC (stereo partly shown)	10.4
CCOC(=O)c1cnc(SCCN2CCOCC2)nc1N	12.8
CC(NC(=O)CCCn1cc([N+](=O)[O-])cn1)c1ccccc1 (stereo not shown)	4.13
COc1ccc2c(c1)C(C)CC(C)(C)N2C(=O)CSc1nc2ccccc2s1 (stereo not shown)	11.2
Nc1c(-c2ccc3c(c2)OCCO3)oc2ccccc2c1=O	10.3
CC1=CC(C)(C)Nc2ccc(OC(=O)CN3C(=O)C4CCCCC4C3=O)cc21 (stereo not shown)	-0.345
CC(=O)OC(CC(=O)O)C[N+](C)(C)C.[Cl-] (stereo not shown)	13.9
O=C(NC1CCCCC1)C(c1ccco1)N(Cc1cccs1)C(=O)Cn1nnc2ccccc21 (stereo not shown)	15.2
CCOC(=O)c1oc2ccccc2c1NC(=O)COC	-5.28
CCOCCC(=O)Nc1cc(Cl)ccc1OC	1.9
CCn1c(SCC(=O)Nc2ccc3c(c2)c2ccccc2n3CC)nnc1-c1ccco1	14.9
Cc1cccc(NS(=O)(=O)c2cccc3cccnc23)n1	3.93
CC(C)c1ccc2c(c1)C(N1CCN(C)CC1)Cc1cccnc1S2.O=C(O)/C=C\C(=O)O (stereo not shown)	-5.95
CCCCn1c(N)c(N(CC(C)C)C(=O)COC(=O)Cc2cccc(OC)c2)c(=O)[nH]c1=O	0.857

Compound	hERG current change (%, negative = inhibition) at 1uM [%]
Cc1ccc(C(=O)N/C(=C/c2ccco2)C(=O)N2CCC(C)CC2)cc1	15.2
O=C(Nc1ccc(S(=O)(=O)Nc2ncccn2)cc1)c1ccccc1Cl	10.7
CCOc1ncccc1C(=O)Oc1ccc2c(c1)OCO2	5.71
Cc1cccc(C2CC(c3ccc(Br)cc3)Nc3nc(N)nn32)c1 (stereo not shown)	-5.88
O=C(CSc1ncnc2c1cnn2-c1ccc(F)cc1)NCc1ccc2c(c1)OCO2	17.3
Cc1ccc(C)c(NC(=O)CCN2CCOCC2)c1	19.6
N#Cc1ccccc1NC(=O)c1ccc(-c2ccccc2Cl)o1	7.1
O=C(NCc1cccnc1)C(=O)NCC(c1ccco1)N1CCN(c2ccccc2F)CC1 (stereo not shown)	11
CC1(C)CC(=O)C2=C(C1)OC1=C(C(=O)CC(C)(C)C1)C2c1ccc(O)c([N+](=O)[O-])c1	8.7
CC1CN(C(=O)c2cccc(S(=O)(=O)N3CCOCC3)c2)CC(C)O1 (stereo not shown)	2.61
CC(C)Sc1nc2ccccc2[nH]1	17
CCOC(=O)c1c(C2COc3ccccc3O2)csc1NC(=O)c1ccco1 (stereo not shown)	10.7
O=C(O)C1CCCCC1C(=O)NCCCN1CCOCC1 (stereo not shown)	10.1
O=C(COc1ccccc1Cl)Nc1ccc(N2CCN(C(=O)c3ccccc3)CC2)cc1	3.72
CCCCOc1ccc(C(=O)N/C(=C\c2ccc([N+](=O)[O-])cc2)C(=O)OCc2ccco2)cc1	7.09
COc1ccc(C(=O)NCCc2nnc(SCC(=O)Nc3ccc(Br)cc3)n2C)cc1	14.7
Cc1nc(NC(=O)CSc2nc(N)cc(N)n2)sc1C	4.51
c1ccc(-c2c(-c3ccccc3)n(Cc3ccco3)c3ncnc(NCCCn4ccnc4)c23)cc1	-9.73
O=C(Nc1ccccc1N1CCCCC1)C1CCN(S(=O)(=O)c2cccc(C(F)(F)F)c2)CC1	0.557

From paper PMC4336329 (PLoS ONE, 2015)
